To fix the notation:
B1: tRNA (parent)
chain: CUCUCGGUAGCCAAGUUGGUUUAAGGCGCAAGACUUUAAUUUAUCACUACGAAAUCUUGAGAUCGGGCGUUCGACUCGCCCCCGGGAGAUUUUUUCCUCGAGCAA

Variants at the floor of the assay are shown more often than the library holds them.

In this data set the parent is B1. As to the kind of experiment: nonsense suppression (GFP-seq) (ratio to wild type); higher = more function; SUP4oc tRNA, yeast GFP reporter sort-seq. Put shortly:
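To measure nonsense suppression, tRNA variants from a library carrying ~3% random mutations were integrated into the yeast genome alongside RFP and a GFP ochre reporter under galactose control. Growth took place in raffinose/galactose medium supplemented with 80 mg/L adenine, followed by sorting into GFP/RFP bins and Illumina sequencing of each bin (phred ≥30). For each variant with ≥100 reads and ≥30 cells, the bin median GFP/RFP values were weighted by its estimated cell share per bin and referenced to the unmutated parent tRNA.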
In the case of A24G G65C G85A, the nonsense suppression is no more than 0.026.
For U21A C75A the value was 0.947.
For C12A G15U A24U A62U the value was no more than 0.026.
For A30U U55C the value was no more than 0.026; for A30U A31U C80A, no more than 0.026.
Turning to U21G U57G U70G, the nonsense suppression was no more than 0.026.
As for U57C G66U C81A, the nonsense suppression was no more than 0.026.
For A14C G25C C29G G84U the value was no more than 0.026.
Take U4C A31U U57G G88U: the nonsense suppression is no more than 0.026.
For G15A U21A G67A the value was no more than 0.026; for U8C A23U A54C, no more than 0.026.
For the variant C1G C56G, the nonsense suppression is no more than 0.026.
For C29U A30U G86A the value was no more than 0.026; for A33G G66C G85U, no more than 0.026; for C5A C11G G67U, no more than 0.026.
For C3U A60G U71A the value was no more than 0.026.
Consider G25A U70C G73U, for which the nonsense suppression was no more than 0.026.
As for U8C U55C U70A A74C, the nonsense suppression is no more than 0.026.
For A14C U21A the value was no more than 0.026; for G61U U63C A74C, no more than 0.026; for A31G C77A, no more than 0.026.
For the variant U16G U20C U35G U76G C79U, the nonsense suppression is no more than 0.026.
Turning to G28U U55C, the nonsense suppression was no more than 0.026.
For C3G U55G the value was no more than 0.026.
For G66U G84U the value was no more than 0.026; for U4C G7U A31U C34A U58A G86C, no more than 0.026.
Regarding G18U U22A G32C A60C, the nonsense suppression was no more than 0.026.
On to C5A A87C, for which the nonsense suppression was no more than 0.026.
For A9G U55G the value was no more than 0.026.
For U4C U16G G18U U20C C56G the value was no more than 0.026; for U22G U57C A60C C81U G85U, no more than 0.026; for U70G C83U G86C, no more than 0.026.
Take A13C U63C: the nonsense suppression is 0.848.
As to C5G G61A C81G, the nonsense suppression was no more than 0.026.
As to G10C G15C U20G, the nonsense suppression was no more than 0.026.
For A24G C29G the value was no more than 0.026; for U2G U8A A87U, no more than 0.026; for U2C G7C G19U U71G C80A A87G, no more than 0.026.
For C1U G15C U57A the value was no more than 0.026.
For A9G U20G A23U the value was no more than 0.026; for A13G G19A U58A U63G, no more than 0.026.
For U2C G7C A30U G32C A33G, the nonsense suppression was no more than 0.026.
On to C12U A24G U58C G59C G73C G85C, for which the nonsense suppression was no more than 0.026.
On to G10A U22C C79A, for which the nonsense suppression was no more than 0.026.
Regarding A9U G10U A14U U22C G59A, the nonsense suppression was no more than 0.026.
As to C56U U63A C81G G84C A87G, the nonsense suppression was no more than 0.026.
For G10A C80G A89C the value was no more than 0.026.
For C12U U17C A89U the value was no more than 0.026; for C83A, no more than 0.026.
As to G32A C80G A89C, the nonsense suppression was no more than 0.026.
For U57A C79G G85A the value was no more than 0.026; for G32A U55A C75A, no more than 0.026; for C5G G18A, no more than 0.026.
For C3U G7C A30U G61U, the nonsense suppression was no more than 0.026.
For C3A A30C the value was no more than 0.026; for A13U U57A G65A, no more than 0.026; for C3U G7A C27G A30U A31U, no more than 0.026.
For G26A G28U G66U C79A, the nonsense suppression is no more than 0.026.
As to G28A G66A, the nonsense suppression amounted to 0.152.
For U2G C11A A74C G84C the value was no more than 0.026; for U4C A23G A87C, no more than 0.026; for U17A A24C, 0.902.
For C34A G73A C79U, the nonsense suppression is no more than 0.026.
On to U2A C27G C64U C68G A74G, for which the nonsense suppression is no more than 0.026.
For C1U G88U the value was no more than 0.026; for U4C A23U U55A, no more than 0.026.
Consider U17C G69A, for which the nonsense suppression is no more than 0.026.
For G15U U71C C82A the value was no more than 0.026; for U55G A60U G86U, no more than 0.026.
For U58G G65C G69C C72A C79G the value was no more than 0.026; for G26U C29A A54U C79U, no more than 0.026; for C27G A33G G61A, no more than 0.026.
For C1G G25A U35C the value was no more than 0.026.
Take U8G U22G G85U A89U: the nonsense suppression is no more than 0.026.
For U20G U22G C27U the value was no more than 0.026; for C29G C34A U76A G84U, no more than 0.026; for U4C A24U A30G U57A G66A C75A, no more than 0.026.
G69C U71C C81G: the nonsense suppression is no more than 0.026.
For A13G U35G the value was no more than 0.026; for U57G U63A, no more than 0.026.
For U16G A23U C80G G86C the value was no more than 0.026; for C12U U21G C77U, no more than 0.026.
For the variant G18A C34U, the nonsense suppression was no more than 0.026.

(Values after the RNAGym collection of RNA variant scans (doi:10.1101/gad.245936.114).)
